# Results published in PubChem BioAssay AID686978 (National Center for Advancing Translational Sciences (NCATS), 2013).
# The whole screen tested about 420,000 compounds, of which about 64,000 (15%) were called active. Inconclusive means that the source gave no clear call. Such entries were picked first, then a sample of the others. Calls follow the shape of the dose curve; as a rule, active = well fitted inhibition curve with a large enough effect; inconclusive = small, poorly fitted or top-dose-only effect; inactive = flat fitted curve, though single readings scatter. No potency is given beside an inconclusive call; the fits are too rough.
# Test: qHTS for Inhibitors of human tyrosyl-DNA phosphodiesterase 1 (TDP1): qHTS in cells in absence of CPT; also: nearly all actives have a fitted effect of over 55% in size
# Details: DT40 Tdp1-/- hTDP1 cells, no CPT, ATP luminescence, 48 h; activity change, negative = growth inhibition: at 46.2 µM (top of the series) unless noted
# Outline: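 Chicken DT40 Tdp1-/- cells stably complemented with human TDP1 were seeded at 400 cells/well with DMSO in place of 20 nM camptothecin. After compound pinning, cells grew at least 48 hr at 37 °C; viability read by CellTiter-Glo luminescence.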
# % is scaled to controls: 0 for no effect and ±100 for the full control effect; potency is read from the fitted curve at half-maximal effect; tags tell the direction and shape of the fitted curve.
Compound,Potency,"activity change, negative = growth inhibition"
O=C(c1ccc2c(c1)N(Cc1ccccc1F)C(=O)c1ccccc1S2(=O)=O)N1CCN(c2ccccn2)CC1,active: 20.6 µM,
N#Cc1ccccc1NC(=O)C(=O)NCC1CCCN1S(=O)(=O)c1cccs1 (centres undefined),,inactive: -29.4%
COc1ccc(C2=NN(C(=O)c3ccco3)C(c3cc4ccccc4nc3Cl)C2)cc1 (centres undefined),"inconclusive [inhibitor, single point]",
COc1ccc2nc(Nc3nc(CSc4nnnn4-c4ccccc4)cc(=O)[nH]3)nc(C)c2c1,"inconclusive [inhibitor, single point]",
COc1ccc(N(C(=O)c2snc(C(N)=O)c2N)C(C(=O)NC2CCCC2)c2ccc3ncccc3c2)cc1 (centres undefined),,inactive: -21.9%
O=C(NNC(=O)c1ccccc1C(=O)O)c1ccc(O)cc1,,inconclusive: -22.1% [inhibitor]
COCCn1c(SCc2nc3cc(OC)c(OC)cc3c(=O)[nH]2)nnc1-c1ccncc1,,inactive: -16.8%
Cc1csc(SCC(=O)Nc2cc(F)ccc2C)n1,"inconclusive [inhibitor, partial curve]",
O=C1CC(N2CCN(c3ccccc3)CC2)C(=O)N1c1ccc(Cl)cc1 (centres undefined),,inactive: -5.78%
CC(=O)c1cccc(Oc2cc(NN3CCCCC3)c([N+](=O)[O-])cc2[N+](=O)[O-])c1,"inconclusive [inhibitor, single point]",
O=C(CCCc1ccccc1)NCCCN1CCOCC1,,inactive: -2.33%
COCCNC(=O)C1(C)CCN(Cc2ccc(C(C)C)cc2)C1 (centres undefined),active: 20.6 µM,
O=C(NC(=O)c1c(F)cccc1F)Nc1cccc(Oc2ncc(Cl)cn2)c1,active: 5.8 µM,
CCOC(=O)C1=CCN(S(=O)(=O)c2ccccc2[N+](=O)[O-])C1c1ccc(C)cc1 (centres undefined),"inconclusive [inhibitor, single point]",
C[C@@H]1CN([C@H](C)CO)C(=O)c2cc(Br)cnc2O[C@@H]1CN(C)C(=O)Cc1ccccc1,,inactive: 13.1%
Cc1ccc(C(=O)OCCN(C)Cc2ccccc2)cc1,"inconclusive [inhibitor, single point]",
Cc1ccccc1NC(=O)c1c(C)oc2ccc(O)c(CN3CCOCC3)c12,active: 23.1 µM,
CCCCn1c(N)c(N(CC(C)C)C(=O)c2ccc(-n3c(C)ccc3C)cc2)c(=O)[nH]c1=O,"inconclusive [inhibitor, single point]",
OCCCN1c2ccccc2Nc2nnc(-c3ccccc3)cc21,"inconclusive [inhibitor, partial curve, poor fit]",
CCn1c(=O)c2cc(C(=O)NCCCN3CCN(C)CC3)sc2c2ccccc21,"inconclusive [inhibitor, single point]",
N#CCCN(C(=O)COC(=O)c1ccc2c(=O)n3c(nc2c1)CCC3)c1ccccc1,"inconclusive [inhibitor, single point]",
c1ccc(-c2cc3nc(NCc4cccs4)ccn3n2)cc1,"inconclusive [inhibitor, single point]",
COC(=O)Cc1ccc(NC(=S)N2CCN(c3ccccn3)CC2)cc1,"inconclusive [inhibitor, single point]",

Compound,Potency,"activity change, negative = growth inhibition"
Cc1cccc(C)c1NC(=S)NC1CCCCC1,"inconclusive [inhibitor, partial curve]",
CN1CCN(CCOCCOc2ccc(Br)cc2Cl)CC1,"inconclusive [inhibitor, partial curve]",
COc1cccc(CN(C)CC(=O)Nc2ccccc2C(=O)Nc2ccccc2)c1OC,"inconclusive [inhibitor, single point]",
Cc1sc2ncnc(SCC(=O)c3ccc(O)cc3O)c2c1C,,inconclusive: -24.9% [inhibitor]
CCOC(=O)Cn1c(=O)oc2cc(S(=O)(=O)N3CCn4c3nc3ccccc34)ccc21,"inconclusive [inhibitor, single point]",
Cc1cc(C)c(S(=O)(=O)N2CCC(C(=O)NCc3ccco3)CC2)c(C)c1,,inactive: 5.58%
O=C(CSc1n[nH]c(-c2ccccc2Cl)n1)NCc1ccc(F)cc1,"inconclusive [inhibitor, single point]",
O=C(CSc1nnc(NC(=O)c2ccc(F)cc2F)s1)NC1CCCC1,,inactive: -11%
Cc1cc(SCC(=O)N/N=C/c2ccc(O)c(O)c2O)c(C)cc1Br,active: 4.61 µM,
Clc1ccc2nc(C3CCCCC3)c(CC3CCCCC3)n2c1,"inconclusive [inhibitor, single point]",
Fc1ccc(C(c2ccc(F)cc2)N2CCN(C/C=C\c3ccccc3)CC2)cc1,active: 21.1 µM,
CCc1ccc2[nH]c(=O)c(C(c3nnnn3CCOC)N3CCN(c4ccc(F)cc4)CC3)cc2c1 (centres undefined),"inconclusive [inhibitor, single point]",
CCOC(=O)c1ccc(NC(=O)c2cc(S(=O)(=O)N3CCOCC3)cn2C)cc1,"inconclusive [inhibitor, single point]",
COc1ccc(NC(=O)CSc2nnnn2C)cc1S(=O)(=O)N1CCCCC1,"inconclusive [inhibitor, single point]",
Cc1ccc(-c2nc(C#N)c(N3CCCCC3)o2)cc1,"inconclusive [inhibitor, single point]",
COc1ccc(CCCNC(=O)C2Cc3c(-c4cccc(C(N)=O)c4)ccnc3O2)cc1 (centres undefined),active: 16.4 µM,
Cc1ccc(Nc2c(-c3ccc(Br)o3)nc3ccccn23)cc1,"inconclusive [inhibitor, partial curve, poor fit]",
CCOC(=O)[C@]12CCCC=C1N(Cc1ccccc1)C(=O)[C@H](CC(=O)NCCCOC)C2,"inconclusive [inhibitor, single point]",
COc1ccc2[nH]c3c(NCCN(C(C)C)C(C)C)ncnc3c2c1,active: 18.4 µM,
O=C(/C=C/Nc1ccc(S(=O)(=O)Nc2ncccn2)cc1)c1ccc(Cl)c(Cl)c1,"inconclusive [inhibitor, partial curve]",
CC(=O)/C(=N\Nc1ccc(Cl)cc1)Sc1nnc(-c2ccccc2)n1-c1ccccc1,"inconclusive [inhibitor, single point]",
CCC(C)(C)C1CCC2(CC1)NC(=O)N(CC(=O)N(C)CCOc1ccc(Cl)cc1)C2=O (centres undefined),active: 23.1 µM,
COc1ccc(/C=C/C(=O)Nc2cccc(C(C)=O)c2)cc1,"inconclusive [inhibitor, single point]",

Compound,Potency,"activity change, negative = growth inhibition"
Cc1c(NC(=O)OCCNC(=O)COc2ccc(Cl)cc2Cl)sc(=S)n1C,"inconclusive [inhibitor, single point]",
CC(C)NCCOCCOc1ccc(Cl)cc1Br,"inconclusive [inhibitor, single point]",
C#CCSc1nnnn1-c1ccc(OCC)cc1,,inactive: -1.42%
O=C(O)C1CCN(C(=O)COc2ccc3c(c2)oc(=O)c2ccccc23)CC1,,inactive: 1.58%
CCOc1ccc(NC(=O)CSC2=Nc3ccccc3C3=NC(CCC(=O)NCc4ccco4)C(=O)N23)cc1 (centres undefined),"inconclusive [inhibitor, partial curve]",
OC[C@@H](O)[C@H](O)C(/C=N/Nc1ccccc1)=N\Nc1ccccc1,"inconclusive [inhibitor, single point]",
CCCCOC(=O)c1ccc(NC(=O)CSc2nnnn2C)cc1,"inconclusive [inhibitor, single point]",
Cc1ccccc1OCc1nc2c3c(ncn2n1)-c1ccccc1CC31CCCC1,active: 14.6 µM,
CCC(=O)Oc1c(Sc2ccc(Cl)cc2)c(C)nn1-c1ccccc1,active: 0.517 µM,
Cc1ccc(-c2nc(CS(=O)(=O)CC(=O)Nc3ccc(Br)cc3F)c(C)o2)cc1,"inconclusive [inhibitor, single point]",
O=C(NCCCN1CCN(c2cccc(Cl)c2)CC1)c1sc2ncccc2c1-n1cccc1,active: 23.1 µM,
COc1cccc(CNC(=O)c2ccc(OCC(=O)N3CCOCC3)c(OC)c2)c1,,inactive: 7.83%
Fc1ccc(-c2cc(-c3cccs3)cc(-c3ccccc3)n2)cc1,"inconclusive [inhibitor, single point]",
COc1ccc(CNC(=O)c2ccc3c(=O)n(CCCN4CCCC4=O)c(=S)[nH]c3c2)cc1,"inconclusive [inhibitor, single point]",
CCc1cccc(NC(=O)Cc2ccc([N+](=O)[O-])cc2)c1,,inconclusive: -32.8% [inhibitor]
O=C(C[N+]1(CCc2ccccc2)CCOCC1)c1ccccc1,,inactive: -25.7%
Cc1ccc(C)c(NC(=O)CCC(=O)N/N=C/c2ccc3c(c2)OCO3)c1,"inconclusive [inhibitor, single point]",
N#Cc1ccc(COc2cccc3cccnc23)cc1,"inconclusive [inhibitor, single point]",
O=C(CN(c1ccc(F)cc1)S(=O)(=O)c1ccccc1)NCCSC1CCCCC1,"inconclusive [inhibitor, single point]",
O=C(CSc1n[nH]c(=O)n1C1CC1)c1c[nH]c2ccccc12,,inactive: -4.18%
O=C(CSc1nc2ccccc2c(=O)n1-c1ccc(SC(F)F)cc1)Nc1ccc(N2CCOCC2)cc1,"inconclusive [inhibitor, partial curve, poor fit]",
Cc1ccc(-c2csc(-c3cc4c([nH]c3=O)CC(c3ccccc3)CC4=O)n2)cc1 (centres undefined),active: 1.3 µM,
CCN(CC)S(=O)(=O)c1ccc(C(=O)OCC(=O)NCc2ccco2)cc1,,inactive: -26.8%
